Hit rate of the full screen: of about 280,000 compounds, about 100 (0.036%) were called active. Inconclusive means that the source gave no clear call. Such entries were picked first, then a sample of the others. Calls follow the shape of the dose curve; as a rule, active = well fitted inhibition curve with a large enough effect in the signal ratio, with a control signal flat (not every such curve was filed as active); inconclusive = small, poorly fitted or top-dose-only effect, or effect the other way, or a change in a side signal; inactive = no such curve, though single readings can be large or run the other way; the % refers to the signal ratio. Where the call is inconclusive, the potency comes from a doubtful curve fit. A note “side channel” means that the fit belongs to a control or component signal, not to the main read-out.
Target: Muscleblind-like protein 1 (Homo sapiens) (UniProt Q9NR56)
Assay: qHTS Assay for Inhibitors of MBNL1-poly(CUG) RNA binding
Conditions: TR-FRET MBNL1-His/biotin-(CUG)12 binding, 665/545 ratio; activity change, negative = inhibition: at 57.5 µM (top of the series)
In short: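 His-tagged MBNL1 binding to biotinylated (CUG)12 RNA was measured by TR-FRET using terbium anti-His antibody (0.055 ng/ul final) and streptavidin-XL665 (5 nM final). Compounds were titrated 92 nM to 58 uM; 60 min at room temperature.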
% is scaled to controls: 0 for no effect and ±100 for the full control effect; potency is read from the fitted curve at half-maximal effect; tags tell the direction and shape of the fitted curve or compound fluorescence and quenching.

UniProt Q9NR56, sequence (Q9NR56 whole entry, looked up): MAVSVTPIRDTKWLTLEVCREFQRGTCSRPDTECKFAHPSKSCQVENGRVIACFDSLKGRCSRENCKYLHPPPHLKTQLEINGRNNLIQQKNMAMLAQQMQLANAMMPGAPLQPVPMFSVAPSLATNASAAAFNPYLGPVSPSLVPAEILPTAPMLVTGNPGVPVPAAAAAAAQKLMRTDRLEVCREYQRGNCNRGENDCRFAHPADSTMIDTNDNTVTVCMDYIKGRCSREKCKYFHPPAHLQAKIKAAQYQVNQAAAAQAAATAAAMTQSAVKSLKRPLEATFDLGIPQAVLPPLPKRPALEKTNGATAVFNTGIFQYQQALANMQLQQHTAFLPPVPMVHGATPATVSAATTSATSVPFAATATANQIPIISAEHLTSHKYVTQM

| SMILES | activity change, negative = inhibition | Potency |
| --- | --- | --- |
| COC(=O)/C=C1\SC(=Nc2ccc(OC)cc2)NC1=O | inactive: 2.11% |  |
| COCCCNC(=O)Cn1cc(/C=C(\C#N)C(=O)NC2CC2)c2ccccc21 |  | inconclusive: 25.1 µM [quencher, side channel, partial curve] |
| COC(=O)c1cc(NS(=O)(=O)c2ccc(NCc3cccnc3)c([N+](=O)[O-])c2)cc(C(=O)OC)c1 | inactive: 1.6% |  |
| COc1ccccc1CC(=O)NNS(=O)(=O)c1cccc([N+](=O)[O-])c1 |  | inconclusive: 10 µM [quencher, side channel, partial curve] |
| Cc1ccc(C)c(NC(=O)c2ccc[n+](Cc3ccc([N+](=O)[O-])cc3)c2)c1 |  | inconclusive: 25.1 µM [quencher, single point] |
| Cc1ccc(NC(=O)C2CCCN2S(=O)(=O)c2ccc(-c3ccc(=O)[nH]n3)s2)c(C)c1 (stereo not drawn) |  | inconclusive: 35.5 µM [quencher, side channel, single point] |
| N=C(c1ccc([N+](=O)[O-])cc1)N1CCCCCC1 |  | inconclusive: 10 µM [quencher, side channel, partial curve] |
| CN(/N=C/c1cccs1)c1cc(=O)n(C)c(=O)[nH]1 |  | inconclusive: 39.8 µM [quencher, side channel, single point] |
| CC(C)(C)NC(=S)NNC(=O)c1ccncc1 | inactive: -22.8% [at 11.5 µM] |  |
| Cc1ccc2cc(CCNC(=O)C(C)C)c(=O)[nH]c2c1 |  | inconclusive: 0.126 µM [quencher, side channel, full curve, poor fit] |
| CN(C)C(=O)C(=O)c1c(-c2ccccc2)cc2ccccn12 |  | inconclusive: 25.1 µM [quencher, side channel, partial curve] |
| O=C(Cc1cccs1)Nc1cccc(-c2ccc3nncn3n2)c1 |  | inconclusive: 17.8 µM [quencher, side channel, partial curve] |
| CC(O)Cn1ccccc1=N (stereo not drawn) | inactive: 0.685% |  |
| O=C1c2ccccc2-c2onc3ccc(NCc4ccco4)c1c23 |  | inconclusive: 11.2 µM [quencher, side channel, partial curve] |
| CN1CCN(C(=O)c2cnn(-c3ccccc3)c2NC(=O)c2ccc([N+](=O)[O-])cc2)CC1 |  | inconclusive: 11.2 µM [quencher, side channel, partial curve] |
| O=Nc1c(O)n(Cc2ccc(Cl)cc2)c2ccccc12 |  | inconclusive: 25.1 µM [quencher, side channel, single point] |
| Cc1ccc(N2C(=O)c3ccc(C(=O)O)cc3C2=O)c(C)c1 |  | inconclusive: 8.91 µM [quencher, side channel, partial curve] |
| O=C(O)c1ccc(NS(=O)(=O)c2cccc3nsnc23)cc1 |  | inconclusive: 31.6 µM [quencher, side channel, single point] |
| COc1ccc(NC(=O)/C(=C\c2cc(OC)c(OC)cc2[N+](=O)[O-])NC(=O)c2ccccc2)cc1 |  | inconclusive: 31.6 µM [quencher, side channel, partial curve] |

| SMILES | activity change, negative = inhibition | Potency |
| --- | --- | --- |
| CN(C)c1ccc(/C=C/c2cc[n+](C)cc2)cc1 |  | inconclusive: 7.94 µM [quencher, side channel, partial curve] |
| COc1ccc(C2/C(=C(\O)c3cccc(OC)c3)C(=O)C(=O)N2c2ccccn2)cc1 (stereo not drawn) |  | inconclusive: 25.1 µM [quencher, single point] |
| CCCS(=O)(=O)c1c(S(=O)(=O)CCC)c2ccc(C(N)=O)cn2c1C(=O)c1ccccc1 |  | inconclusive: 28.2 µM [quencher, side channel, single point] |
| CCOc1ccc(NCc2nnc(SCc3ccc(Cl)cc3)n2-c2ccccc2)cc1 |  | inconclusive: 15.8 µM [quencher, side channel, single point] |
| Cc1ccc(C(=O)NCC(=O)Nc2ccncc2)cc1 | inactive: 0.792% |  |
| COc1ccc(C)cc1NC(=O)c1cccc(-c2ccc(OC(C)=O)cc2)c1 | inactive: -1.06% |  |
| CN(CC(=O)Nc1ccccc1Cl)C(=O)CSc1ncc(C(F)(F)F)cc1Cl |  | inconclusive: 126 µM [inhibitor, partial curve, poor fit] |
| CC(C)NC(=O)c1cc2cc([N+](=O)[O-])ccc2s1 |  | inconclusive: 8.91 µM [quencher, side channel, partial curve] |
| CC(=O)CCn1cnc([N+](=O)[O-])n1 |  | inconclusive: 15.8 µM [quencher, side channel, partial curve] |
| c1coc(-c2nn3c(Cn4nnc5ccccc54)nnc3s2)c1 |  | inconclusive: 28.2 µM [quencher, side channel, partial curve, poor fit] |
| CN(C)S(=O)(=O)c1cccc(N=C2NN=C(c3ccccc3)CS2)c1 | inactive: -3.95% |  |
| C=CCn1c(Sc2nncn2C)nc2c1c(=O)[nH]c(=O)n2C |  | inconclusive: 0.794 µM [quencher, side channel, single point] |
| O=C(c1cc(COc2ccc(F)cc2Cl)on1)N1C[C@H]2CC[C@H]1C2 | inactive: 4.61% |  |
| O=[N+]([O-])c1cc(Br)c(Nc2ccccc2)c([N+](=O)[O-])c1 |  | inconclusive: 31.6 µM [quencher, partial curve] |
| O=C(O)c1ccc2c(=O)n3c(nc2c1)/C(=C/c1ccc(Cl)c(Cl)c1)CC3 |  | inconclusive: 39.8 µM [quencher, side channel, single point] |
| Cc1cc(/C=C2/NC(=S)NC2=O)c(C)n1-c1cccnc1 |  | inconclusive: 28.2 µM [quencher, side channel, single point] |
| CN1C(=O)N(C)C(c2cccc([N+](=O)[O-])c2)C2=C1CCCC2=O (stereo not drawn) |  | inconclusive: 31.6 µM [quencher, side channel, single point] |
| CN1CCN(/N=C/c2nc(-c3cccc([N+](=O)[O-])c3)n3ccccc23)CC1 |  | inconclusive: 8.91 µM [quencher, side channel, partial curve] |
| CCCCNC(=O)COC(=O)c1c2c(nc3ccccc13)CCC2 | inactive: 7.66% |  |

From PubChem BioAssay AID2675 (National Center for Advancing Translational Sciences (NCATS), 2010)
